# From PubChem BioAssay AID652104 (National Center for Advancing Translational Sciences (NCATS), 2013)
# Hit rate of the full screen: of about 410,000 compounds, about 7,200 (1.8%) were called active. The shares of active, inactive and inconclusive entries below differ from those in the screen. Calls come from the whole dose curve; as a rule, active = well fitted activation curve with a large enough effect; inconclusive = small, poorly fitted or top-dose-only effect, or another doubt; inactive = no such curve, though single readings can be large or run the other way. Potencies of inconclusive entries are left out as doubtful fits.
# Test: qHTS of TDP-43 Inhibitors; note: nearly all actives have a fitted effect of over 50% in size; for growth rescue (activation): % of control where 0% means no effect
# Conditions: TDP-43 expressing yeast growth rescue, BacTiter-Glo, 24 h; growth rescue (activation): at 46.1 µM (top of the series) unless noted
# In short: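 Growth rescue of TDP-43-toxic yeast measured as ATP luminescence (BacTiter-Glo). Cells grown to mid-log in raffinose, induced in galactose at OD600=0.02, exposed to compound 24 hr at 30 deg C.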
# Potency is the fitted concentration of half-maximal effect; tags give direction and shape of the fitted curve.
SMILES,Potency,growth rescue (activation)
CC(C)(C)C(=O)c1sc(Nc2ccccc2)nc1N,"inconclusive [activator, single point]",
N/C(=N\OC(=O)CCCOc1ccccc1)c1ccccc1,active: 25.1 µM,
Cc1ccc(/C=C2/C(=O)ON=C2c2ccccc2)o1,,inconclusive: -69.5% [activator]
Cn1c(=O)c2c(ncn2CC(=O)Nc2cccc(C(F)(F)F)c2)n(C)c1=O,,inactive: 20.5%
Cc1cccc(NC(=O)CCc2c(C)nc3nc(CNC(=O)c4cccc(F)c4)nn3c2C)c1,"inconclusive [activator, full curve, poor fit]",
COC(=O)c1ccc(NS(=O)(=O)c2ccc(SC)cc2)cc1,,inactive: -8.91%
Nc1c(C(O)(C(F)(F)F)C(F)(F)F)ccc2ccccc12,"inconclusive [activator, single point]",
CCOc1ccccc1CNS(=O)(=O)c1ccc(-c2coc(C)n2)cc1,"inconclusive [activator, partial curve, poor fit]",
COc1ccc(/C(N)=N/OC(=O)c2ccc3c(c2)OCO3)cc1,active: 5.62 µM,
Cc1cccc(C(c2sc3nc(-c4ccco4)nn3c2O)N2CCN(c3ccccc3)CC2)c1 (stereo not given),"inconclusive [activator, partial curve]",
O=C(c1ccco1)[C@@H]1[C@@H]2C(=O)N(c3ccc(F)cc3)C(=O)[C@@H]2[C@H]2C=Cc3ccccc3N21,"inconclusive [activator, single point]",
CC(C)N(N=Nc1ccc([N+](=O)[O-])cc1)C(C)C,,inactive: 0.973%
NC(=O)CC1(c2ccccc2)CCCCC1,"inconclusive [activator, partial curve]",
O=C(Cn1nc2c(cc1=O)CCCC2)Nc1ccccc1C(F)(F)F,,inactive: 19.6%
Cc1nnc(-c2cccc(Br)c2)c2cn(-c3ccccc3)nc12,"inconclusive [activator, full curve]",
CC(Sc1ccc(Cl)cc1)C(=O)NNC(=O)c1ccccc1O (stereo not given),"inconclusive [activator, partial curve, poor fit]",
CCn1cc(CNC(=O)c2cc(-c3ccc(C)c(C)c3)nc3ccccc23)c(C)n1,"inconclusive [activator, single point]",
CC1CC(=O)N(c2ccc(NCc3ccccc3Cl)c([N+](=O)[O-])c2)C1=O (stereo not given),"inconclusive [activator, partial curve]",
Cc1cc2nc(C(C)(C)C)c(Cc3ccsc3)n2c(C)c1Br,active: 12.6 µM,
Clc1ccccc1Cn1nnc2c(N3CCCC3)ncnc21,"inconclusive [activator, single point]",
